# In PubChem BioAssay AID1347120 (National Center for Advancing Translational Sciences (NCATS), 2019):
# Hit rate of the full screen: of about 390,000 compounds, about 930 (0.24%) were called active. The shares of active, inactive and inconclusive entries below differ from those in the screen. Calls follow the shape of the dose curve; as a rule, active = well fitted activation curve with a large enough effect; inconclusive = small, poorly fitted or top-dose-only effect; inactive = no such curve, though single readings can be large or run the other way. Potencies of inconclusive entries are doubtful fits and often do not repeat.
# Assay: qHTS for Suppressors of FUS Proteinopathy: Primary screen using FUS-linked yeast assay; also: nearly all actives have a fitted effect of over 55% in size
# Conditions: S. cerevisiae FUS-expressing, OD600, 24 h; Potency: growth rescue; series mostly up to 76.6 µM
# Summary of the method: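 Absorbance at 600 nm, taken 24hr after compound addition, measured rescue of FUS-yeast growth at 30C. Induction used 2% galactose with seeding at OD 0.005. Controls: CP55940 from 92uM final, DMSO only.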
# Potency is read from the fitted curve at half-maximal effect; tags tell the direction and shape of the fitted curve.
row,Compound,Potency
1,Clc1ccc(-n2nnnc2SCc2cn3ccccc3n2)cc1,"inconclusive: 3.16 µM [activator, full curve]"
2,COCCCNC(=O)C1CCC(Cn2c(=O)c3sccc3n(C)c2=O)CC1 (stereo not drawn),inactive
3,CCOC(=O)C1CCN(c2nc3c(S(=O)(=O)c4ccccc4)nnn3c3ccc(Cl)cc23)CC1,inactive
4,C=CCn1c(C)cc(C2=NNC(=NC(C)(C)C)SC2)c1C,"inconclusive: 28.2 µM [activator, single point]"
5,Cc1ccc(-n2cnc3cc(C(=O)NCc4ccc(F)cc4)ccc32)c(C)c1,"inconclusive: 31.6 µM [activator, single point]"
6,COc1cc(S(=O)(=O)NCc2ccc3c(c2)OCO3)c(OC)cc1C,inactive
7,Cc1cc(NC(=O)CCC(=O)N(c2ccc(F)cc2)C2(C(=O)NC3CCCCC3)CCCC2)no1,"inconclusive: 25.1 µM [activator, partial curve, poor fit]"
8,CC(=O)Nc1ccc(S(=O)(=O)Nc2nc3ccccc3nc2N2CCCC2)cc1,"inconclusive: 44.7 µM [activator, partial curve, poor fit]"
9,O=C(OCC(=O)N1CCCC1)c1c(Cl)cccc1Cl,inactive
10,Cc1cn([C@H]2C[C@H](O)[C@@H](CCC(=O)NCCc3cnc[nH]3)O2)c(=O)[nH]c1=O,inactive
11,COc1ccc(/C=c2/sc3n(c2=O)C(c2ccccc2OC)C2=C(N=3)c3ccccc3CC2)cc1O (stereo not drawn),"inconclusive: 3.55 µM [activator, partial curve, poor fit]"
12,CCOC(=O)C1CCN(C(c2ccc(OCC)cc2)c2c(O)cc(C)n(CCOC)c2=O)CC1 (stereo not drawn),inactive
13,Cc1ccc(NC(=O)COC(=O)CCC2CCCC2)cc1S(=O)(=O)N1CCOCC1,"inconclusive: 17.8 µM [activator, partial curve]"
14,O=C(COCc1cc(-c2cccs2)on1)N1CCN(c2ccc(F)cc2)CC1,inactive
15,CCSc1ncc(Cl)c(C(=O)N(Cc2ccccc2)c2ccc(OC)cc2)n1,"inconclusive: 8.91 µM [activator, partial curve]"
16,COCCCn1c(SCC(=O)N2CCc3ccccc32)nnc1-c1ccoc1C,"inconclusive: 11.2 µM [activator, full curve, poor fit]"
17,O=C(NCc1ccccc1)c1cccc2c1C(=O)c1ccc(/C=C/c3ccccc3)cc1S2(=O)=O,"inconclusive: 35.5 µM [activator, partial curve, poor fit]"
18,O=C(c1ccccc1)N1CCCC(c2nc3c(nnn3Cc3ccc(F)cc3F)c(=O)[nH]2)C1 (stereo not drawn),inactive
19,O=C1N(CN2CCN(Cc3ccccc3)CC2)c2ccccc2C12OCCCO2,"inconclusive: 50.1 µM [activator, partial curve, poor fit]"
20,O=S(=O)(NCC(c1ccco1)N1CCN(c2ccccc2)CC1)c1ccccc1 (stereo not drawn),inactive
21,O=C(CN1C(=O)c2ccccc2S1(=O)=O)NCCSC1CCCCC1,"inconclusive: 44.7 µM [activator, single point]"
22,O=C(C[C@H]1C/C=C\C[C@H](Cc2ccc(F)cc2)C(=O)O[C@@H](c2ccccc2)CNC1=O)N[C@H](CO)Cc1ccccc1,active: 28.2 µM

row,Compound,Potency
1,CCOC(=O)c1ccc(NC(=O)c2nc[nH]c2C(=O)NC2CCN(C(=O)OC(C)(C)C)CC2)cc1,"inconclusive: 6.31 µM [activator, full curve]"
2,COc1ccccc1CNC(=O)c1cc2c(-c3ccc(Cl)cc3)nn(C)c2s1,"inconclusive: 35.5 µM [activator, single point]"
3,Cc1ccc(NC(=O)CN2C(=O)NC3(CCc4ccccc43)C2=O)cc1S(=O)(=O)N1CCCCC1 (stereo not drawn),"inconclusive: 17.8 µM [activator, partial curve, poor fit]"
4,CCOC(=O)C1=CCN(S(=O)(=O)c2ccccc2F)C1c1ccc(C)cc1 (stereo not drawn),inactive
5,COc1ccc(CCNc2nc(-c3cccc(NC(C)=O)c3)cs2)cc1OC,"inconclusive: 3.16 µM [activator, full curve]"
6,CCOc1ccc(C2=Nn3c(CC)nnc3SC2)cc1,inactive
7,CC1CCc2ccccc2N1CC(=O)Nc1cccc(S(=O)(=O)N2CCCC2)c1 (stereo not drawn),"inconclusive: 50.1 µM [activator, single point]"
8,O=C(NCc1ccc2c(c1)OCO2)c1ccc2c(c1)N(Cc1ccccc1F)C(=O)c1ccccc1S2=O (stereo not drawn),"inconclusive: 3.98 µM [activator, full curve]"
9,C/C(=N\NC(N)=S)c1ccccc1,inactive
10,C[C@H](NC(=O)c1nc[nH]c1C(=O)N[C@@H](CCCCNC(=O)OC(C)(C)C)C(=O)OC(C)(C)C)c1ccccc1,"inconclusive: 22.4 µM [activator, single point]"
11,O=C(CSc1nnc(-c2c[nH]c3ccccc23)n1CC1CCCO1)Nc1ccc2c(c1)OCCO2 (stereo not drawn),"inconclusive: 44.7 µM [activator, single point]"
12,CC1CCCN(C(=O)COc2ccc(-c3ccccc3)cc2)C1 (stereo not drawn),"inconclusive: 28.2 µM [activator, single point]"
13,Cc1ccc(NC(=O)NNC(=O)Cn2nc(-c3ccccc3)c(-c3ccccc3)c(C#N)c2=O)cc1,"inconclusive: 25.1 µM [activator, single point]"
14,CCN(C(=O)[C@H]1CC(=O)O[C@@H]1c1ccccc1)c1ccccc1,inactive
15,O=C1[C@@H](Oc2ccccc2)[C@@H](c2ccncc2)N1c1ccncc1,inactive
16,NC(=O)[C@@H]1CC2(CC(c3cccc(NC(=O)COc4ccc(Cl)cc4)c3)=NO2)CN1C(=O)COc1ccc(Cl)cc1 (stereo partly drawn),active: 17.8 µM
17,CCc1ccccc1NC(=O)CSc1nnc(-c2ccccc2)c(-c2ccccc2)n1,inactive
18,CC1(C)Cc2c(cnn2-c2ccccc2)-c2c1c1ccccc1n2CC(O)CBr (stereo not drawn),"inconclusive: 8.91 µM [activator, partial curve, poor fit]"
19,Cc1ccc(C(=O)CSc2nc3c([nH]2)c(=O)n(C)c(=O)n3C)cc1,inactive
20,Cc1cc(=O)n(CC(=O)NC(C)c2ccccc2)c2c1c(C)nn2-c1cccc(F)c1 (stereo not drawn),inactive
21,O=C(c1ccc(S(=O)(=O)Nc2cccc(C(F)(F)F)c2)cc1)N1CCN(c2ccccc2O)CC1,"inconclusive: 31.6 µM [activator, single point]"
